Reference: PMC4336329 (PLoS ONE, 2015)
Screen size: about 310,000 compounds; about 14,000 (4.5%) showed an effect of 50% or more. Effects have a minus sign here. Some of the results follow.

biological target: human ether-à-go-go-related gene (hERG) potassium channel (human, UniProt Q12809); assay: primary screen, population patch clamp on CHO cells stably expressing hERG
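Also: peak tail current of the secondary pulse compared with the same well before compound.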

Sequence of human ether-à-go-go-related gene (hERG) potassium channel (Q12809 whole entry, looked up): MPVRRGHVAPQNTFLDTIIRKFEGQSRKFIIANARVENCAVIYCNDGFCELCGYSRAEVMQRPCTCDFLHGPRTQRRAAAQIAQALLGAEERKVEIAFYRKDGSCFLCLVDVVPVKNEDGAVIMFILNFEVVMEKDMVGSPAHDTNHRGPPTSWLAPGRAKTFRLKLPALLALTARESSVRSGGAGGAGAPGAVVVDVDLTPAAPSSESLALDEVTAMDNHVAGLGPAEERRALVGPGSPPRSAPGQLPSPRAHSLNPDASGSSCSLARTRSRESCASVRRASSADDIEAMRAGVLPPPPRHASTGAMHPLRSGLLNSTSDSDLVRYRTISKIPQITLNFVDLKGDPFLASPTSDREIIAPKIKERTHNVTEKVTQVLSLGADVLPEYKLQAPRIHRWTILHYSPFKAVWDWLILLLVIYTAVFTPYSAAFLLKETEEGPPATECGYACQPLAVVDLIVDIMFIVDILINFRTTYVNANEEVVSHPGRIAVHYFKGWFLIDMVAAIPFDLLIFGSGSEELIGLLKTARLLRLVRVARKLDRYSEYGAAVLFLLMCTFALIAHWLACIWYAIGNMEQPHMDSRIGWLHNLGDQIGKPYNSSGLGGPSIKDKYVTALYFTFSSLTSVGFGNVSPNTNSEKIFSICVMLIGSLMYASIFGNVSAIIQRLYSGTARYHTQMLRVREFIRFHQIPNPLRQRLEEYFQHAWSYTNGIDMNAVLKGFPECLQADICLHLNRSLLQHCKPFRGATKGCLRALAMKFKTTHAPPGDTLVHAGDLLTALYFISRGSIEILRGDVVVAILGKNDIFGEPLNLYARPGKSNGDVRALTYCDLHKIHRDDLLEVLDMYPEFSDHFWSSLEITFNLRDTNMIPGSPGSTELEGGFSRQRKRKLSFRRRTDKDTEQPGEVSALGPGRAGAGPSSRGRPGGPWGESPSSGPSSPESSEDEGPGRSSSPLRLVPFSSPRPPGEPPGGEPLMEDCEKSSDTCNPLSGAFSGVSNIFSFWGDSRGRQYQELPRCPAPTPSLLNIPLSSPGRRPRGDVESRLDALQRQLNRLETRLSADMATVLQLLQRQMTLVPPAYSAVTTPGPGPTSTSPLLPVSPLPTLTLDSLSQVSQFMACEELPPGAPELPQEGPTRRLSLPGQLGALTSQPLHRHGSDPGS

SMILES	hERG current change (%, negative = inhibition) at 10uM
CCc1nnc(SCc2cccc(F)c2)nc1CC	-7.7%
CCN1CCN(c2ccc(S(=O)(=O)N3CCCCC3)cc2NC(=O)COc2ccc(Cl)c(C)c2)CC1	-34.5%
C=CCN(c1ccc(C(N)=O)cc1)S(C)(=O)=O	10.4%
O=C(Nc1cccc2ncccc12)c1ccc(OCc2ccccc2)cc1	-12%
O=C1CC(c2cccc(Cl)c2)CC(O)=C1C=NC1CCCC1 (stereo not shown)	-59.8%
O=C(Nc1ccn([C@H]2CC[C@@H](CO)O2)c(=O)n1)c1ccccc1	-5.68%
COc1cccc(C(=O)Nn2cnnc2)c1OC	13.7%
Cc1ccc(/C=C/S(=O)(=O)NCC(=O)OCC(=O)Nc2ccc(C(=O)N(C)C)cc2)cc1	8.71%
CN(C)c1ccc(C(=O)Nc2ccc(S(=O)(=O)Nc3nccs3)cc2)cc1	12.9%
CN(C(=O)CNC(=O)c1ccc(Br)o1)C1CCCCC1	21.8%
CCN(CC)C(=O)CSc1nnc(-c2cnccn2)n1-c1ccccc1	0.233%
CC(C)CN(C(=O)COC(=O)c1ccc2ccccc2n1)C1CCS(=O)(=O)C1 (stereo not shown)	14.3%
Cc1cc(NC(=O)C(C)N2C(=O)c3ccccc3S2(=O)=O)no1 (stereo not shown)	5.14%
CC(=O)N1N=C(c2ccco2)CC1c1ccc(Br)cc1 (stereo not shown)	-13.4%
CCS(=O)(=O)N1CCN(C(=O)c2cccc3ccccc23)CC1	12.8%
CCCCCCC(c1c(C)n(C)n(-c2ccccc2)c1=O)c1c(C)n(C)n(-c2ccccc2)c1=O	-40.4%
Cc1cnc(C(=O)OCC(=O)N2CCN(C(=O)c3ccco3)CC2)cn1	-8.85%
O=C(CN(C(=O)CCNC(=O)c1ccco1)c1ccccc1)NC1CCCC1	10.1%
N#CC1(NC(=O)CSc2nncn2-c2ccccc2F)CCCC1	6.31%
Cc1cc(C)c2oc(-c3ccc(C)c(NC(=S)NC(=O)c4cccs4)c3)nc2c1	8.58%
Clc1ccc(OCc2nn3c(-c4ccco4)nnc3s2)cc1	-44.4%
CC(C)COc1ccc(C(=O)Nc2ccc(SC(F)F)cc2)cc1	15.7%
O=C(Nc1ccc(F)c(Cl)c1)C1CCCN(C2=NS(=O)(=O)c3ccccc32)C1 (stereo not shown)	-63%
Cc1cc(C)cc(N2C(=O)CC(Sc3nnnn3-c3ccccc3)C2=O)c1 (stereo not shown)	-9.17%
O=C(Nc1ccncc1)C1CC1c1ccccc1 (stereo not shown)	2.98%
O=[N+]([O-])c1cccc(CN2C[C@@]34C=C[C@@H](C[C@@H]3S2(=O)=O)O4)c1	-12.6%
Cc1cc(NC(=O)c2cc(C)on2)no1	-4.2%
CN1CCN(CCC(C#N)(c2ccccc2)c2ccccc2)CC1.Cl	-62.9%

SMILES	hERG current change (%, negative = inhibition) at 10uM
Cc1nc2ccccc2nc(C)c1=NOCC(=O)N(c1ccccc1)C(C)C	-18.6%
CC1CC(C)CN(CCCNC(=O)CCC(=O)N2CC(C)Oc3ccccc32)C1 (stereo not shown)	-32.2%
Cc1cc(C)nc(NC(=O)c2cccc([N+](=O)[O-])c2)c1	-3.84%
Cn1c(=O)c2cc(NCc3ccccc3)nnc2n(C)c1=O	3.39%
Cc1ccc([C@@H]2[C@@H]3C(=O)N(c4ccccc4)C(=O)[C@@H]3[C@]3(Cc4ccccc4)C(=O)N(CC4CC4)CC(=O)N23)o1	0.669%
CCOC(=O)N1CCN(C(=O)c2ccc(NS(=O)(=O)c3ccc(F)cc3)cc2)CC1	-1.81%
COc1ccc(-c2cc([C@H]3[C@H]4C=CC[C@@H](C)[C@@H]4C(=O)N3Cc3ccccc3)ccc2F)cc1OC	-5.13%
O=C(CCNC(=O)c1ccc(Br)cc1)NCCCN1CCOCC1	11.1%
CC(C)C[C@@H](N)c1nnc(SCC(=O)c2ccc(Cl)cc2)o1.Cl	-37.1%
CCOC(=O)CSc1nc(C(C)(C)C)nc2ccccc12	4.41%
CC(C)n1nc(CC(=O)O)c2ccccc2c1=O	-1.71%
COc1ccc(C(=O)NN/C(C)=C/C(=O)c2ccccc2)cc1	4.41%
COc1cc2c(cc1OC)C1Cc3ccc(OC)c(OC)c3CN1CC2.Cl (stereo not shown)	-6.39%
Cc1ccsc1CN(C)CC(=O)Nc1ccc([N+](=O)[O-])cc1Cl	18.5%
Cn1nc(C(F)(F)F)c(C(=O)Nc2ccc(F)cc2F)c1Sc1ccc(C(F)(F)F)cc1	-3.39%
CCC1(C)Cc2ccccc2/C(=C/C(=O)N2CCCCC2)N1.Cl (stereo not shown)	-0.76%
Cc1ncsc1CCOC(=O)c1ccc(Cl)cc1	-10.3%
Cc1ccc(C)c(S(=O)(=O)Nc2cc3c4c(c2)CCN4C(=O)CC3)c1	-8.33%
CCC1(C)NC(=O)N(CC(=O)Nc2sc3c(c2C(=O)OC)CCCCC3)C1=O (stereo not shown)	5.93%
Cc1ccc(C(=O)OCC(=O)NCc2ccco2)cc1S(=O)(=O)N1CCOCC1	-4.94%
O=S(=O)(CCN1CCN(c2ccccn2)CC1)c1ccc(F)cc1	-10.2%
CCN(CC)C(=O)C1CCCN(c2ccc([N+](=O)[O-])cc2/C=N/NC(=O)c2cccc(O)c2)C1 (stereo not shown)	-16.9%
Cc1cc(C)c(S(=O)(=O)NCC(c2ccco2)N2CCc3ccccc3C2)c(C)c1 (stereo not shown)	5.85%
CCSc1ccccc1C(=O)N1CCN(Cc2ccc3c(c2)OCO3)CC1	2.37%
Cc1ccnc(NC(=O)Cn2ccc([N+](=O)[O-])n2)c1	-8.91%
O=C(NCc1ccc(F)cc1)N[C@@H](Cc1ccccc1)C(=O)O	7.44%
Cc1cccc(NC(=O)CSCC(=O)NCc2ccco2)c1	-1.34%
